Some of the results follow. Shown are side measurements of this screen, not its main read-out; they come without a call.
Assays:
Assay in all cases: Primary Screen for Target Class Profiling of Small Molecule Inhibitors of Methyltransferases
[1] = biological target: Glycine N-methyltransferase (Homo sapiens) (UniProt Q14749); settings: purified enzyme, MTase-Glo SAH luminescence; measured here: GNMT inhibition; at 40 µM; stronger effect = lower value
Procedure, shortened: (§1)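 Each enzyme was reacted with SAM and its substrate, with compounds tested once at 40 uM; SAH formed was read by MTase-Glo luminescence.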

[2] = biological target: Guanidinoacetate N-methyltransferase (Homo sapiens) (UniProt Q14353); settings: purified enzyme, MTase-Glo SAH luminescence; measured here: GAMT inhibition; at 40 µM; stronger effect = lower value
Procedure, shortened: as §1

[3] = biological target: Histamine N-methyltransferase (Homo sapiens) (UniProt P50135); settings: purified enzyme, MTase-Glo SAH luminescence; measured here: HNMT inhibition; at 40 µM; stronger effect = lower value
Procedure, shortened: as §1

[4] = biological target: Nicotinamide N-methyltransferase (Homo sapiens) (UniProt P40261); settings: purified enzyme, MTase-Glo SAH luminescence; measured here: NNMT inhibition; at 40 µM; stronger effect = lower value
Procedure, shortened: as §1

[5] = biological target: Phenylethanolamine N-methyltransferase (Homo sapiens) (UniProt P11086); settings: purified enzyme, MTase-Glo SAH luminescence; measured here: PNMT inhibition; at 40 µM; stronger effect = lower value
Procedure, shortened: as §1
% is scaled to controls: 0 for no effect and ±100 for the full control effect.

SMILES | activity change, negative = inhibition [1] [%] | activity change, negative = inhibition [2] [%] | activity change, negative = inhibition [3] [%] | activity change, negative = inhibition [4] [%] | activity change, negative = inhibition [5] [%]
CC(=O)N1CCn2c(nnc2-c2ccccc2)C1 | -4.71 | -8.66 | -2.54 | -14.4 | -3.99
CCc1ccc(N2C(=O)c3cc4occc4n3CC2(C)C(=O)NC2CCCCC2C)cc1 (stereo not given) | -8.19 | 0.433 | -4.64 | -0.314 | -5.18
CCOC(=O)c1cc2n(n1)CC(C)(C(=O)NC1CCCCC1)N(CCCc1ccccc1)C2=O (stereo not given) | 5.42 | 0 | -0.738 | 1.5 | 6.61
O=C(NCc1ccc2c(c1)OCO2)c1csc(N2CCN(c3ccc(F)cc3)CC2)n1 | 0.441 | -0.359 | -1.47 | -5.25 | -2.55
O=C(Cn1ccc2cc(S(=O)(=O)N3CCCC3)ccc21)NCc1cccc(Br)c1 | 2.29 | 0 | 2.04 | -6.84 | -12.8
COc1ccc(C)cc1NC(=O)Cn1c(=O)oc2cc(S(=O)(=O)N3CC(C)CC(C)C3)ccc21 (stereo not given) | 14.9 | 0 | 11.5 | 4.76 | 2.03
Cc1cc2c(cc1S(=O)(=O)Nc1ccc(F)c(F)c1)n(C)c(=O)n2C | 6.82 | 0 | 6 | 3.96 | 2.14
CCN1C(=O)CCc2cc(NC(=O)CC(C)C)ccc21 | -4.2 | -2.89 | 0.182 | -8.01 | -5.19
CC(C)CCn1c(=O)c2ccc(C(=O)NC3CCCC3)cc2n2c(SCC(=O)c3ccccc3)nnc12 | 2.7 | 0 | 9.73 | -3.24 | 5.73
COc1cccc(C2c3cccn3-c3sc4c(c3CN2C(=O)Nc2cccc(C)c2)CCCC4)c1 (stereo not given) | 1.06 | 0 | 5.33 | -10.9 | 4.4
CC(C)=CCC/C(C)=C/CO[C@@H]1O[C@H](CO[C@@H]2O[C@@H](CO)[C@H](O)[C@H]2O)[C@@H](O)[C@H](O)[C@H]1O | 5.36 | 4.6 | 13.7 | -6.1 | 6.18
COCCNC(=O)C(NC(=O)c1ccccc1)C1CCN(C(=O)C2CC2)CC1 (stereo not given) | -4.08 | -3.97 | -1.03 | -8.69 | -1.34
CN(C)CCN(C)[C@@H]1[C@H](O)[C@H](CO)O[C@@H]1CN(Cc1ccc(Cl)cc1)Cc1cccc(Cl)c1 | -5.02 | -8.77 | -15 | -26.1 | -8.14
Cc1cc(C)cc(N2C(=O)CSc3c(c4ccccc4n3C)C2C(=O)NCc2ccccc2)c1 (stereo not given) | 9.04 | 0 | 3.75 | 4.34 | 4.13
CC(C)CCn1c(=O)c2ccc(C(=O)NC3CCCC3)cc2n2c(=O)n(Cc3ccccc3F)nc12 | 2.72 | 0 | 2.29 | 1.93 | 4.14
C[C@@H]1C(=O)O[C@H]2[C@H]1CC[C@@]1(C)Cc3sc(NC(=O)COc4ccccc4)nc3[C@@H](C)[C@H]21 | -8.33 | -6 | -6.38 | -9.86 | -5.27
C/C=C(/C)C(=O)OC1C(OC(C)=O)C23C(O)OC4(CCC5C6(C)CCC(OC7OC(C(=O)O)C(O)C(OC8OC(CO)C(O)C(O)C8OC8OC(C)C(O)C(O)C8OC8OCC(O)C(O)C8O)C7OC7OC(CO)C(O)C(O)C7O)C(C)(C)C6CCC5(C)C4(C)CC2OC(C)=O)C3CC1(C)C (stereo not given) | 4.31 | 2.88 | -0.109 | -4.95 | 6.11
COCCCN1C(=O)c2cc3occc3n2CC1(C)C(=O)NC1CCCCC1 (stereo not given) | 0.758 | 5.7 | 2.99 | 9.23 | 1.41
CC(C)(C)OC(=O)NCCCC(=O)NCc1ccnc2[nH]ccc12 | -6.12 | -5.67 | -6.05 | -14.9 | -8.97
Cc1occc1C(=O)N1CCCC(O)(CNC(=O)N2CCOCC2)CC1 (stereo not given) | -0.633 | -0.754 | 3.82 | 1.2 | 3.22
O=C(CCn1ccc2cc(S(=O)(=O)N3CCCC3)ccc21)NCCC1=CCCCC1 | -1.16 | 2.41 | 3.63 | -1.41 | 0.377
COc1ccc(OC2CN(Cc3cccnc3)C2)cc1 | -3.9 | -2.06 | -2.15 | -3.38 | 0.386
CC(C)CCn1c(=O)c2ccc(C(=O)NC(C)C)cc2n2c(=O)n(CC(=O)NC3CCCC3)nc12 | 4.94 | 0 | 0.294 | -2.3 | 2.75
O=C(Cc1ccccn1)N1CCC(C(=O)N2CCC(c3nc4ncccc4[nH]3)CC2)CC1 | -5.28 | -5.92 | -4.44 | -11.9 | -23.4
COCCN1CCN(Cc2ccc(-c3n[nH]c4c3C(=O)c3c(NC(=O)NN5CCOCC5)cccc3-4)cc2)CC1 | -16 | -3.9 | -9.93 | -43.1 | -29.9
COc1ccc(CNC(=O)c2ncn3c2C(=O)N(C2CC2)C(C)(C(=O)NCc2ccccc2Cl)C3)cc1 (stereo not given) | -1.65 | 0.67 | 4.71 | -0.785 | 4.76
CC(=O)Nc1ccc(OCC(=O)N2CCC(C)CC2)nc1 | -5.22 | 0.315 | 0.406 | 3.92 | 2.28
Cc1ccc(Cn2c(=O)c3ccccc3n3c(-c4cccc(C)c4)nnc23)cc1 | 0.738 | -42.6 | 7.18 | 6.21 | 0.389
COc1ccc(CN2C[C@@H](CO)[C@H](c3ccncc3)C2)c(OC)c1 | -6 | -2.7 | -24 | -50.2 | -2.9

Source: PubChem BioAssay AID1745853 (National Center for Advancing Translational Sciences (NCATS), 2022)
